Data reported in article PMC4336329 (PLoS ONE, 2015).
In all, about 310,000 compounds went through this assay and about 2,200 (0.71%) showed an effect of 50% or more. Effects have a minus sign here. This is one part of the list.

biological target: human ether-à-go-go-related gene (hERG) potassium channel (human, UniProt Q12809); experiment: primary screen, population patch clamp on CHO cells stably expressing hERG
Sequence (Q12809 whole entry, looked up): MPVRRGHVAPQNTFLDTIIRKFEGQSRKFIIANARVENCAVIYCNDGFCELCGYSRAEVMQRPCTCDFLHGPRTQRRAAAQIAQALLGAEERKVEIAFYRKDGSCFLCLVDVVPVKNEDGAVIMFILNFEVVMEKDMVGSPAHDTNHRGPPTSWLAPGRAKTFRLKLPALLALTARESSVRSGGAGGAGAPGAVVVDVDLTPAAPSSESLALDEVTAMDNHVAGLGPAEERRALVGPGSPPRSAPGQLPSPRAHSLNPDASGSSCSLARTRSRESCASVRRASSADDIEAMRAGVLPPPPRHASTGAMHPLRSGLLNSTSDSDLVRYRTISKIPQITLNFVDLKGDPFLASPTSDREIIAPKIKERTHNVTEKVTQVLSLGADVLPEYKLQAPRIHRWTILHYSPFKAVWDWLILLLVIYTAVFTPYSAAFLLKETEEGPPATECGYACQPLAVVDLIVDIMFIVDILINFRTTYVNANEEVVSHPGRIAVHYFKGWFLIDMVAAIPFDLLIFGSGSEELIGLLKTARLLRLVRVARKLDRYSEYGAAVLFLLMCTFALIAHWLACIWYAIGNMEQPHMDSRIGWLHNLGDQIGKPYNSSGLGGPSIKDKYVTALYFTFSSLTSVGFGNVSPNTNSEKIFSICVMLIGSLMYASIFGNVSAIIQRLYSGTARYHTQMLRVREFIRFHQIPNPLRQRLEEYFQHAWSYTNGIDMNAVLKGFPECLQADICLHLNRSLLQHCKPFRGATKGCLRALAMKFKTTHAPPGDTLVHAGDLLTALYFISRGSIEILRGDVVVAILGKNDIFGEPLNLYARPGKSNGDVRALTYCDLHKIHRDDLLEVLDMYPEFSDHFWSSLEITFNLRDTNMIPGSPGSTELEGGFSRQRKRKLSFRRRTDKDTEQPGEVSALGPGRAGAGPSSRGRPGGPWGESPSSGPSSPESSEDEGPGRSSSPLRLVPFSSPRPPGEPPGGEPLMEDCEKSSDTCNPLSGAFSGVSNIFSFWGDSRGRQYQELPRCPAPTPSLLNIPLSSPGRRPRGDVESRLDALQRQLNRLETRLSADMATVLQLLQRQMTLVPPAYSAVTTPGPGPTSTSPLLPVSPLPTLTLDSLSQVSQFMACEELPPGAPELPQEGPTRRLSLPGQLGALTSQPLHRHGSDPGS

Compound	hERG current change (%, negative = inhibition) at 1uM
CC(C)OCc1c(C(=O)OC/C(O)=C(\C#N)c2nc3ccccc3[nH]2)oc2ccccc12	7.53%
CCCCN(CCCC)S(=O)(=O)c1ccc(NC(=O)Cc2cccs2)cc1	14.2%
CC1CCCN(C(C(=O)Nc2ccc(C(C)C)cc2)c2ccc3c(c2)OCO3)C1 (stereo not shown)	10.6%
Cc1ccc2cccc(Oc3ccc([N+](=O)[O-])cc3[N+](=O)[O-])c2n1	14.5%
Cn1nc(C(F)(F)F)c(-c2ccc(F)cc2)c1NC(=O)c1cccnc1	8%
COCCN(C(=O)COC(=O)c1c(NC(C)=O)sc(C)c1C)c1c(N)n(Cc2ccccc2)c(=O)[nH]c1=O	-8.34%
CC(C)N1CCNCC1.Cl	12.2%
COc1cccc(C2CC(=O)N3CN(c4ccccc4F)CSC3=C2C#N)c1 (stereo not shown)	7.39%
COc1ccc(OC)c(Nc2cc(C)nc3ccc(C)cc23)c1	-35%
CS(=O)(=O)N(CCc1ccccc1)CC(=O)NCc1ccco1	10%
O=C(NCCN1C(=O)S/C(=C\c2ccc(Cl)cc2)C1=O)c1ccc(F)c(S(=O)(=O)N2CCOCC2)c1	0.812%
CC(SC(=S)N1CCCC1)C(=O)O (stereo not shown)	12.8%
O=C(NC(=S)NCCC1=CCCCC1)c1ccccc1Br	9.72%
COc1ccc(CCC(=O)NCCS(=O)(=O)N2CCN(c3ccc(F)cc3)CC2)cc1	-18.6%
O=C(CN1c2ccccc2Sc2ccccc21)N/N=C/c1ccccc1	3.12%
COc1ccccc1-n1c(O)c(/C=C2\C=Nc3ccccc32)c(=O)[nH]c1=O	11.9%
CCN1CCN(C(=O)C(C)N(c2ccc(C)cc2)S(C)(=O)=O)CC1 (stereo not shown)	14.7%
CC1C=CCC2C(=O)N(c3cccc(C(=O)NCCc4ccccc4)c3)C(=O)C12 (stereo not shown)	6.34%
COc1ccc(C(=O)OC2CCCCC2CN(C)C)cc1.Cl (stereo not shown)	11.5%
CC(C)CCn1nc(C(=O)OC(C)C(=O)NC(N)=O)c2ccccc2c1=O (stereo not shown)	7.68%
CC1=C(C(=O)NCc2ccccc2)C(c2cccs2)n2ncnc2N1 (stereo not shown)	1.76%
Cc1ccc2nc(-c3ccccn3)cc(C(=O)NC(C)C(C)(C)C)c2c1 (stereo not shown)	7.41%

Compound	hERG current change (%, negative = inhibition) at 1uM
COc1ccccc1NC(=O)Nc1cc(C(C)(C)C)nn1C	7.6%
Cc1cc(C)c2sc(NC(=O)C3=COCCO3)nc2c1	7.36%
O=C(c1cccc(-c2nnc(-c3ccccc3)o2)c1)N1CCCCC1	-5.13%
Br.C=CCN1C(c2ccccc2)=CS/C1=C(\C#N)c1nnc2n1CCCCC2	-31.5%
Cc1cccc(NS(=O)(=O)c2ccc(C)c(C(=O)NCC(c3ccccc3)N(C)C)c2)c1 (stereo not shown)	3.09%
Cc1nc(Cl)sc1C(=O)Nc1ccccc1Cl	15.3%
COc1ccc(CNC(=O)C2CCN(S(=O)(=O)c3ccc4c(c3)C(C)(C)C(=O)N4C)CC2)cc1	10.1%
CN(C)CCCn1c(SCCN2C(=O)c3ccccc3C2=O)nc2ccccc2c1=O	-19.9%
O=C(COc1ccccc1Cl)NCc1ccncc1	-4.33%
O=C(NC(=S)Nc1cccc([N+](=O)[O-])c1)C1CCCC1	8.11%
O=C(c1ccnc(Cl)c1)N1CCCC(Nc2ccc(F)cc2)C1 (stereo not shown)	14.7%
COc1ccc(OC)c(S(=O)(=O)Nc2cc3c4c(c2)CCC(=O)N4CCC3)c1	14.9%
Cc1ccnc(NC(=O)c2ccccc2NC(=O)c2ccccc2)c1	10.4%
Cc1cc(OCCCC(=O)NC2=NCCS2)ccc1Cl	18.6%
CCn1cnc2cc(NC(=O)c3ccc(C)cc3)ccc21	13.4%
COc1ccc(NC(=O)CN(C)CC(=O)Nc2cccc(C(F)(F)F)c2)cc1	9.22%
CCOC(=O)C1C(=O)C=C(c2ccc([N+](=O)[O-])cc2)CC1c1ccccc1 (stereo not shown)	-34.5%
CCOC(=O)C1CCCN(CC(=O)Nc2cccc(C(C)=O)c2)C1 (stereo not shown)	21%
O=C(Cn1c(=O)c2ccccc2n(CC(=O)N2CCCCC2)c1=O)N1CCCCC1	7.2%
O=C(NCCN1CCOCC1)C(Sc1ccccc1)c1ccccc1 (stereo not shown)	3.69%
c1ccc(-c2nnc3n2N=C(c2ccc4c(c2)OCO4)CS3)nc1	-18.4%
O=S(=O)(c1ccc(Cl)cc1)N1CCN(C(=S)Nc2ccc(F)c(Cl)c2)CC1	9.01%

Compound	hERG current change (%, negative = inhibition) at 1uM
NC(=O)c1c(Nc2nc3c(F)cccc3s2)sc2c1CCCC2	17.1%
CCOc1ccccc1NC(=O)C1CCCN(C(=O)NCc2ccccc2)C1 (stereo not shown)	14.2%
Cc1ccc(S(=O)(=O)NC(=O)C2CCCCC2)cc1	7.15%
CC(Oc1ccc(Br)cc1)C(=O)NC1CCN(Cc2ccccc2)CC1 (stereo not shown)	-59.6%
Cc1[nH]c(=O)c(C#N)c(C)c1CCC(=O)N(C)CC(=O)Nc1ccc(Cl)c(Cl)c1	16.1%
O=C(COC(=O)Cn1cnc2ccccc2c1=O)Nc1ccccc1Sc1ccc(Cl)cc1	2.51%
CCOc1ccc(-n2ccnc2SCC(=O)Nc2nnc(CC)s2)cc1	-2.2%
COc1cnc(SCCC(F)=C(F)F)[nH]c1=O	16.6%
O=C(Nc1ccc(Br)cc1)c1cc(-c2cccs2)on1	11.6%
CN1CCN(CCNC(=O)Nc2ccc(Cl)cc2)CC1	9.31%
O=C(CCNC(=O)c1ccc([N+](=O)[O-])cc1)Nc1ccc(F)c(F)c1F	3.31%
O=C(CCCc1ccccc1)Nc1cccc2c1CCCC2	8.79%
Cc1nc(CNS(=O)(=O)c2ccc(Oc3ccccc3)cc2)cs1	11.6%
O=C(CSc1ccccc1)NCc1ccc(F)cc1	3.35%
O=C(O)CCCCCNS(=O)(=O)c1cccc2c1C(=O)c1ccccc1C2=O	-3.39%
CCOC(=O)c1ccc(N2CCOCC2)c(NC(=O)c2nccnc2C(=O)O)c1	10.5%
CCOC(=O)C1(Cc2cccc(F)c2)CCN(C(=O)COC)CC1	7.49%
Cc1nn(Cc2ccccc2)c(C)c1C(=O)NCCN1C(=O)S/C(=C\c2ccccc2)C1=O	7.35%
N#Cc1ccccc1Sc1ccccc1C(=O)NCC(c1ccco1)N1CCCC1 (stereo not shown)	9.97%
Cc1ccc(CCN2CC(C(=O)NCCCN3CCN(C)CC3)CC2=O)cc1 (stereo not shown)	12.7%
CC(=O)c1ccc(NC(=O)C(C)NCc2ccc(Cl)cc2)cc1 (stereo not shown)	3.39%
Cc1ccc(N(C(=O)c2csnn2)C(C(=O)NC(C)(C)C)c2ccccn2)cc1 (stereo not shown)	11.4%

Compound	hERG current change (%, negative = inhibition) at 1uM
COc1ccc(N(CC(=O)NC(C)(C)C)C(=O)CCC(=O)Nc2nccs2)cc1	10.8%
Cc1ccccc1NC(=O)COC(=O)c1ccc2nc(C)c(C)nc2c1	12.4%
CCC1(c2ccccc2)NC(=O)N(CC(=O)Nc2ccccc2N2CCCC2)C1=O (stereo not shown)	1.49%
CC1=C(C(=O)OCC(C)C)C(c2ccsc2)C2=C(CCCC2=O)N1 (stereo not shown)	12.7%
O=C(CCC(=O)OCC(=O)c1ccc(Br)cc1)Nc1ccc(Br)c2cccnc12	12.9%
O=C(COC(=O)c1ccccc1NC(=O)c1ccco1)NC1CCCCC1	-4.44%
Cc1ccc(-n2nnnc2CN2CCCCC2)cc1	5.52%
COc1ccc(-n2c(SCC(=O)/C(C#N)=C(\C)N)nc3ccccc3c2=O)cc1OC	5.47%
CC1(c2nnc(Cc3ccccc3)o2)CC(c2cccnc2)=NO1 (stereo not shown)	5.9%
CCOC(=O)c1ccc(Oc2cn[nH]c2-c2ccc(O)cc2O)cc1	11.9%
CC(=O)c1ccc(NC(=O)c2noc3c2CCCCC3)cc1	8.63%
CC1(C)CC(=O)C(N=Nc2c(F)cccc2F)=C(O)C1	15.3%
COc1cc(CN2C(=O)NC(=O)C3(Cc4cc(C)ccc4N(C)C3)C2=O)cc(OC)c1 (stereo not shown)	-0.657%
Clc1ccc(CSc2nnc(-c3cccnc3)n2Cc2ccco2)c(Cl)c1	-42.3%
COc1cccc(/C=C/C(=O)OCC(=O)NC2CC2)c1	10.5%
COc1ccc(-c2[nH]ncc2/C=N\NC(=O)c2ccc(C(C)(C)C)cc2)cc1OC	1.77%
Cc1ccc(NC(=O)COC(=O)CCC(=O)c2cccs2)c(Br)c1	10.1%
Cc1ccc(/C=C/C(=O)OCC(=O)Nc2ccccc2Sc2ccccc2)cc1	-1.05%
O=c1cc(-c2ccc3c(c2)OCCO3)oc2ccc(Cl)cc12	3.95%
Cc1ccc(C(=O)NNC(=O)Cc2nc3nc(C)cc(C)n3n2)cc1	25.2%
O=C(NC(=S)NCCN1CCOCC1)c1ccc(F)cc1	11.2%
Cc1cccc(NC(=O)c2ccccc2C(=O)O)c1	0.803%
